Read counts are not given, so values of variants with three or more changes are uncertain.
B1: CPEB3 Ribozyme (parent)
chain: UAACAGGGGGCCACAGCAGAAGCGUUCACGUCGCAGCCCCUGUCAGAUUCUGGUGAAUCUGCGAAUUCUGCUGUAUAUCUC

Variants of: B1
Experiment: self-cleavage, relative activity (ratio to wild type); higher = more cleavage; in vitro, sequencing
Outline: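 Relative activity was defined as the cleaved/total read fraction for a variant divided by the same fraction for the unmutated ribozyme. CPEB3 self-cleaving ribozyme libraries were made by rounds of error-prone PCR, barcoded, and transcribed in vitro with T7 RNA polymerase for 5 hours at 37°C, and cleavage ran through transcription plus a 15 min DNase I step before EDTA. Illumina sequencing of template-switched reverse transcripts gave the reads, and DNA sequencing mapped the barcodes. Averages come from three batches, using variants with at least 5 reads.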

| Variant | self-cleavage |
| --- | --- |
| C17A A18G C29A U51A U54G A64U | 0.11 |
| C17A A18G U31A U58C A64G U74C | 0.12 |
| C17A A18G U31C U80A | 0.34 |
| C17A A18G U41C U72A | 0.09 |
| C17A A18G U51C U54G A64U U72G | 0.13 |
| C17A A18U U26C A56G U58A | 0.06 |
| C17A A20G U31C | 0.35 |
| C17A A20G U72C | 0.19 |
| C17A A21G A35G U41C U48C U72A | 0.08 |
| C17A A21G G24A A45G U60C U69C U80A | 0.03 |
| C17A A28G U41A U74C U76C | 0.21 |
| C17A A35G A56U | 0.17 |
| C17A A35G C59A G61A | 0.18 |
| C17A A35G U54A | 0.7 |
| C17A A35G U66C | 0.25 |
| C17A A47G U54A U66C | 0.1 |
| C17A A47G U54A U66C C81U | 0.07 |
| C17A A47G U54A U66C G70C | 0.07 |
| C17A A64G C71G G73A U76C | 0.12 |
| C17A C27A A28G A35G U41A A56G A65U | 0.04 |
| C17A C34A U54C | 0.06 |
| C17A C38U G63A | 0.05 |
| C17A G24U U25C U41C U51C U54A | 0.43 |
| C17A G42A U80C | 0.21 |

| Variant | self-cleavage |
| --- | --- |
| C17A U25C U26A C39U U43C U72C U76C | 0.08 |
| C17A U26A C40U A47U A56G A75G | 0.09 |
| C17A U26C C37A | 0.52 |
| C17A U31C U69G | 0.34 |
| C17A U41C A45C A64U | 0.07 |
| C17A U43C A47G U49C U54C | 0.14 |
| C17A U43C U49C A57G U76C | 0.06 |
| C17A U48C A64U U80C | 0.14 |
| C17A U49A A57G U78A | 0.25 |
| C17A U49C U66C | 0.16 |
| C17A U58A U74A | 0.11 |
| C17G A18C C27U U31C C38A U43C U51A | 0.04 |
| C17G A18G A45U U69C U72C U74C | 0.16 |
| C17G A18U C23G | 0.09 |
| C17G A18U C23G U51C | 0.04 |
| C17G A20U C39U | 0.35 |
| C17G A21G A35U | 0.35 |
| C17G A21G C29G | 0.17 |
| C17G A21G C29G A77G | 0.18 |
| C17G A21G U41A U51A U69A U74C | 0.07 |
| C17G A21G U54C U60C | 0.06 |
| C17G A21G U60A | 0.07 |
| C17G A28G A57G U60C U72A | 0.06 |
| C17G A28U C40U C68A U74C | 0.18 |

| Variant | self-cleavage |
| --- | --- |
| C17G A35G U41A C44G G53U | 0.14 |
| C17G A35G U48C U51C A57G U78C | 1.33 |
| C17G A35U C39A A57G U72C | 0.07 |
| C17G A65G U80A | 0.21 |
| C17G C23G U43C A65G U80C | 0.11 |
| C17G C27G A47G U51G U80A | 0.06 |
| C17G C32U U76A | 0.04 |
| C17G C40A A47G | 0.09 |
| C17G C50U U74A | 0.67 |
| C17G G24C C34U U43G U58A | 0.06 |
| C17G G30A U43C A56G A64C U78A | 0.08 |
| C17G G33U U43C U58A U74A | 0.1 |
| C17G U25C C34G U48A U51G C62U | 0.08 |
| C17G U25C G55A C59A U76A | 0.07 |
| C17G U25C U26G U67A | 0.08 |
| C17G U25C U48C G55A | 0.09 |
| C17G U26A A45G U51A U69C A77U | 0.06 |
| C17G U26C U69A G70A U74A | 0.01 |
| C17G U31A G36C U69C U72A U78C U80A | 0.07 |
| C17G U31A U51C | 0.14 |
| C17G U31C A45G U80C | 0.1 |
| C17G U51C A64U U67C | 0.14 |
| C17G U72A U80C | 0.51 |
| C17U A18G A20U G53A U76C | 0.26 |

| Variant | self-cleavage |
| --- | --- |
| C17U A18G A35G | 0.68 |
| C17U A18G A65G A77G | 0.19 |
| C17U A18U A20C U26C U31G U49C G55A | 0.09 |
| C17U A20G A35G U60C U78G | 0.31 |
| C17U A20G A47G U67A U74C U80A | 0.2 |
| C17U A20G C32G A35U A77U | 0.08 |
| C17U A20G U25C U41A U67A | 0.19 |
| C17U A20G U58A U67C | 0.15 |
| C17U A20G U60C G70A | 0.26 |
| C17U A20U A45U U49C | 0.14 |
| C17U A20U A56U U60C U72A | 0.11 |
| C17U A20U U31G U43C U67C | 0.17 |
| C17U A21C C29U U54C | 0.18 |
| C17U A21G A28C G33A A64G U74A | 0.04 |
| C17U A21G A28G U43C C44U A77U | 0.23 |
| C17U A21G C37G U58C | 0.13 |
| C17U A21G U58C | 0.19 |
| C17U A21G U72C | 0.09 |
| C17U A28G A35U U60A A75U | 0.1 |
| C17U A28G A45U A77U | 0.3 |
| C17U A28G C32A U43C G55C | 0.17 |
| C17U A28G U72C | 0.21 |
| C17U A28U U41A A47G G63A A64G U72C | 0.05 |
| C17U A28U U41C U58A | 0.16 |

| Variant | self-cleavage |
| --- | --- |
| C17U A35G A45C U67C | 0.12 |
| C17U A35G A47G | 0.93 |
| C17U A35G U41A U49A U67C | 0.09 |
| C17U A35G U74C | 1.3 |
| C17U A35U C38A | 0.25 |
| C17U A45G A64G U76A | 0.58 |
| C17U A45G G55A | 0.16 |
| C17U A45G U49A | 0.11 |
| C17U A45U U60C U78C | 0.29 |
| C17U A45U U76C | 0.29 |
| C17U A47G U48C U74C | 0.22 |
| C17U A64G U78C | 0.39 |
| C17U C29U C40U U67C | 0.04 |
| C17U C32U A65G G70A | 0.09 |
| C17U C38U A64G U67A U80C | 0.05 |
| C17U C39A A57C A77G | 0.14 |
| C17U C40A A47G A75U | 0.17 |
| C17U C40A A56G A64G U72G A77U | 0.03 |
| C17U C44A A56G U67C U78C | 0.11 |
| C17U C62U A65G | 0.08 |
| C17U G19U U25G C27U | 0.29 |
| C17U G24A U51C | 0.13 |
| C17U G24C A28U U51A U67G | 0.1 |
| C17U G30C C38A G70U | 0.15 |

| Variant | self-cleavage |
| --- | --- |
| C17U G42U U72C | 0.27 |
| C17U U25A G52A | 0.27 |
| C17U U25C A45G U60A | 0.18 |
| C17U U25C A57G | 0.18 |
| C17U U25C A57G U74C | 0.27 |
| C17U U25C C32U | 0.08 |
| C17U U25C U41A U67C U78A | 0.08 |
| C17U U25C U43C A45G A47U | 0.13 |
| C17U U25C U48A U67C U69A | 0.05 |
| C17U U25C U48C A64G U78C | 0.18 |
| C17U U25C U49A U72C | 0.08 |
| C17U U25C U67C | 0.1 |
| C17U U25C U74C | 0.38 |
| C17U U25G U41C A75U | 0.07 |
| C17U U26A A35U A64U | 0.28 |
| C17U U26A G53A A75U | 0.64 |
| C17U U26C A56G U72A | 0.47 |
| C17U U26C A56G U74A U78C | 0.44 |
| C17U U26C A57G A75G | 0.08 |
| C17U U26C U54A U60C U80C | 0.2 |
| C17U U26C U54A U80C | 0.15 |
| C17U U26C U60C A77U | 0.11 |
| C17U U26C U69A A77C | 0.16 |
| C17U U31A A35G | 0.97 |

| Variant | self-cleavage |
| --- | --- |
| C17U U31A U43C | 0.27 |
| C17U U31C A57G C59A | 0.1 |
| C17U U31C U60A | 0.33 |
| C17U U31C U60C A64U A77G | 0.17 |
| C17U U41A A47U | 0.49 |
| C17U U41A C44U G63A | 0.12 |
| C17U U41A C68A | 0.15 |
| C17U U41C C44A A45G A65G | 0.1 |
| C17U U41C G46U A65G | 0.1 |
| C17U U41C U69C | 0.22 |
| C17U U43C U60A A75U | 0.08 |
| C17U U43C U69C C71U | 0.19 |
| C17U U43C U74C | 0.46 |
| C17U U49C U76A | 0.15 |
| C17U U51A A65G U76C | 0.35 |
| C17U U51C U72C | 0.46 |
| C17U U51C U80G | 0.79 |
| C17U U54C U76C | 0.75 |
| C17U U58C C68A | 0.16 |
| C17U U66C A77U | 0.32 |
| C17U U67A U80C | 0.4 |
| C17U U69A U72A | 0.15 |
| A18C A20G A21G U26A U41A U67A A75G | 0.05 |
